The other results are listed elsewhere or left out. No stated cut-off is given here; in the data, active = 3.2 or more and inactive = the rest. The signal is at background level for most entries.
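Further: displayed peptides selected on beads carrying the immobilized SH2 domain, with library peptides lacking any tyrosine serving as negative controls.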

One assay deals with SHP2 C-SH2 domain E139D. Put plainly: enrichment score (SH2-bound / input frequency) (ratio); bacterial display of known human phosphotyrosine sites (pTyr-Var adds point mutants) read by sequencing; higher = stronger binding; tyrosines were phosphorylated by kinases first. Particulars: peptide library: pTyr-Var.
Take KLMTEYKRRKQ [ARFGEF3_Y2029_K2031R]: the enrichment score is inactive: 0.241.
The same measure, in the same setting: for TDLAYYLVREG [ASL_Y376_K380E] the value was inactive: 0.926; for RGFDTYFGFLL [ARSB_Y165_YF], inactive: 1.15; for LEGAKYVSHGA [ASS1_Y113_R108L], inactive: 0.453.
The same measure, in the same setting: for KKCTRYIDCDR [ASPA_Y64_L69R] the value was inactive: 0.852; for IHFAIYLLKYS [ARMC9_Y107], inactive: 1.6; for QGFDTYFGFLL [ARSB_Y165_R160Q_YF], inactive: 0.652.
NDPMEYAKQHG [ASS1_Y163_L160P]: the enrichment score is inactive: 0.474.
Still for that read-out and setting: the same measure for TDLAFYLVCKG [ASL_Y376_R379C_YF]: inactive: 0.806; for KKCTTYIDCDL [ASPA_Y64_R63T]: inactive: 0.781.
The same measure, in the same setting: for ATDLAYFLVCK [ASL_Y375_R379C_YF] the value was inactive: 1.04; for REGAKYVSHCA [ASS1_Y113_G117C], inactive: 0.588; for NDLMEYAKQHG [ASS1_Y163], inactive: 0.988.
On to HEVHIYEKSGA [ARPC1B_Y35], for which the enrichment score was inactive: 1.04.
KTTILHKLKLG [ARF1_Y35_Y35H]: the enrichment score is inactive: 2.76.
The same measure, in the same setting: for DMGAQYAAASP [ARID1B_Y483] the value was inactive: 0.511.
The same measure, in the same setting: for TDLAFYLVRKG [ASL_Y376_YF] the value was inactive: 0.869; for ATDLAYFLVRK [ASL_Y375_YF], inactive: 1.07; for KLMTEYKKRKQ [ARFGEF3_Y2029], inactive: 1.48.

A further assay addresses SHP2 C-SH2 domain wild-type. Described as above. Particulars: peptide library: pTyr-Var.
Take KLMTEYKRRKQ [ARFGEF3_Y2029_K2031R]: the enrichment score was inactive: 0.18.
The same measure, in the same setting: the same measure for TDLAYYLVREG [ASL_Y376_K380E]: inactive: 1.29; for RGFDTYFGFLL [ARSB_Y165_YF]: inactive: 1.46; for LEGAKYVSHGA [ASS1_Y113_R108L]: inactive: 0.482.
Same read-out and setting: the same measure for KKCTRYIDCDR [ASPA_Y64_L69R]: inactive: 1.05; for IHFAIYLLKYS [ARMC9_Y107]: inactive: 1.73.
As to QGFDTYFGFLL [ARSB_Y165_R160Q_YF], the enrichment score is inactive: 0.746.
In the case of NDPMEYAKQHG [ASS1_Y163_L160P], the enrichment score was inactive: 0.6.
The same measure, in the same setting: for TDLAFYLVCKG [ASL_Y376_R379C_YF] the value was inactive: 0.934; for KKCTTYIDCDL [ASPA_Y64_R63T], inactive: 1.1.
The same measure, in the same setting: for ATDLAYFLVCK [ASL_Y375_R379C_YF] the value was inactive: 1.33; for REGAKYVSHCA [ASS1_Y113_G117C], inactive: 0.973.
Regarding NDLMEYAKQHG [ASS1_Y163], the enrichment score is inactive: 0.897.
On to HEVHIYEKSGA [ARPC1B_Y35], for which the enrichment score was inactive: 1.13.
KTTILHKLKLG [ARF1_Y35_Y35H]: the enrichment score was inactive: 2.24.
In the case of DMGAQYAAASP [ARID1B_Y483], the enrichment score is inactive: 0.483.
Still for that read-out and setting: for TDLAFYLVRKG [ASL_Y376_YF] the value was inactive: 0.652; for ATDLAYFLVRK [ASL_Y375_YF], inactive: 0.87; for KLMTEYKKRKQ [ARFGEF3_Y2029], inactive: 1.11.

Another assay deals with SHP2 N-SH2 domain L43F. Described as above. Particulars: peptide library: pTyr-Var.
Take KLMTEYKRRKQ [ARFGEF3_Y2029_K2031R]: the enrichment score was inactive: 0.313.
Still for that read-out and setting: the same measure for TDLAYYLVREG [ASL_Y376_K380E]: inactive: 0.79; for RGFDTYFGFLL [ARSB_Y165_YF]: inactive: 1.05; for LEGAKYVSHGA [ASS1_Y113_R108L]: inactive: 0.321.
Same read-out and setting: for KKCTRYIDCDR [ASPA_Y64_L69R] the value was inactive: 0.945.
Take IHFAIYLLKYS [ARMC9_Y107]: the enrichment score is inactive: 1.44.
For the molecule QGFDTYFGFLL [ARSB_Y165_R160Q_YF], the enrichment score is inactive: 0.767.
The same measure, in the same setting: the same measure for NDPMEYAKQHG [ASS1_Y163_L160P]: inactive: 0.562; for TDLAFYLVCKG [ASL_Y376_R379C_YF]: inactive: 0.944.
Take KKCTTYIDCDL [ASPA_Y64_R63T]: the enrichment score was inactive: 0.965.
Still for that read-out and setting: for ATDLAYFLVCK [ASL_Y375_R379C_YF] the value was inactive: 0.852; for REGAKYVSHCA [ASS1_Y113_G117C], inactive: 0.965; for NDLMEYAKQHG [ASS1_Y163], inactive: 0.889.
On the same count and under the same terms, for HEVHIYEKSGA [ARPC1B_Y35] the value was inactive: 0.91; for KTTILHKLKLG [ARF1_Y35_Y35H], inactive: 2.89.
Regarding DMGAQYAAASP [ARID1B_Y483], the enrichment score was inactive: 0.469.
Turning to TDLAFYLVRKG [ASL_Y376_YF], the enrichment score is inactive: 0.974.
Still for that read-out and setting: the same measure for ATDLAYFLVRK [ASL_Y375_YF]: inactive: 0.816; for KLMTEYKKRKQ [ARFGEF3_Y2029]: inactive: 1.18.

The target of the next assay is SHP2 N-SH2 domain T42A. The assay is described as above. Particulars: peptide library: pTyr-Var.
Regarding KLMTEYKRRKQ [ARFGEF3_Y2029_K2031R], the enrichment score is inactive: 0.193.
Still for that read-out and setting: for TDLAYYLVREG [ASL_Y376_K380E] the value was inactive: 1.24; for RGFDTYFGFLL [ARSB_Y165_YF], inactive: 1.13; for LEGAKYVSHGA [ASS1_Y113_R108L], inactive: 0.439.
Still for that read-out and setting: the same measure for KKCTRYIDCDR [ASPA_Y64_L69R]: inactive: 0.776; for IHFAIYLLKYS [ARMC9_Y107]: inactive: 1.32.
Consider QGFDTYFGFLL [ARSB_Y165_R160Q_YF], for which the enrichment score was inactive: 0.594.
Same read-out and setting: for NDPMEYAKQHG [ASS1_Y163_L160P] the value was inactive: 0.463; for TDLAFYLVCKG [ASL_Y376_R379C_YF], inactive: 0.947; for KKCTTYIDCDL [ASPA_Y64_R63T], inactive: 1.02.
Same read-out and setting: the same measure for ATDLAYFLVCK [ASL_Y375_R379C_YF]: inactive: 0.774; for REGAKYVSHCA [ASS1_Y113_G117C]: inactive: 0.688.
As for NDLMEYAKQHG [ASS1_Y163], the enrichment score was inactive: 0.861.
The same measure, in the same setting: the same measure for HEVHIYEKSGA [ARPC1B_Y35]: inactive: 0.652; for KTTILHKLKLG [ARF1_Y35_Y35H]: inactive: 1.92; for DMGAQYAAASP [ARID1B_Y483]: inactive: 0.476.
Same read-out and setting: for TDLAFYLVRKG [ASL_Y376_YF] the value was inactive: 0.786; for ATDLAYFLVRK [ASL_Y375_YF], inactive: 0.882.
For KLMTEYKKRKQ [ARFGEF3_Y2029], the enrichment score is inactive: 1.07.

The next assay concerns the target SHP2 N-SH2 domain T52S. Described as above. Particulars: peptide library: pTyr-Var.
As to KLMTEYKRRKQ [ARFGEF3_Y2029_K2031R], the enrichment score was inactive: 0.316.
With TDLAYYLVREG [ASL_Y376_K380E], the enrichment score was inactive: 0.625.
Turning to RGFDTYFGFLL [ARSB_Y165_YF], the enrichment score is inactive: 1.02.
Turning to LEGAKYVSHGA [ASS1_Y113_R108L], the enrichment score is inactive: 0.321.
Still for that read-out and setting: for KKCTRYIDCDR [ASPA_Y64_L69R] the value was inactive: 1.04.
Take IHFAIYLLKYS [ARMC9_Y107]: the enrichment score was inactive: 1.86.
Still for that read-out and setting: the same measure for QGFDTYFGFLL [ARSB_Y165_R160Q_YF]: inactive: 0.716; for NDPMEYAKQHG [ASS1_Y163_L160P]: inactive: 0.43; for TDLAFYLVCKG [ASL_Y376_R379C_YF]: inactive: 0.733.
In the case of KKCTTYIDCDL [ASPA_Y64_R63T], the enrichment score was inactive: 0.974.
Take ATDLAYFLVCK [ASL_Y375_R379C_YF]: the enrichment score was inactive: 0.875.
Still for that read-out and setting: for REGAKYVSHCA [ASS1_Y113_G117C] the value was inactive: 0.579; for NDLMEYAKQHG [ASS1_Y163], inactive: 0.851.
The same measure, in the same setting: for HEVHIYEKSGA [ARPC1B_Y35] the value was inactive: 0.909; for KTTILHKLKLG [ARF1_Y35_Y35H], inactive: 2.6; for DMGAQYAAASP [ARID1B_Y483], inactive: 0.551.
Same read-out and setting: the same measure for TDLAFYLVRKG [ASL_Y376_YF]: inactive: 0.735; for ATDLAYFLVRK [ASL_Y375_YF]: inactive: 1.02; for KLMTEYKKRKQ [ARFGEF3_Y2029]: inactive: 1.32.

Another assay deals with SHP2 N-SH2 domain wild-type. The assay is described as above. Particulars: peptide library: pTyr-Var.
Turning to KLMTEYKRRKQ [ARFGEF3_Y2029_K2031R], the enrichment score is inactive: 0.17.
Turning to TDLAYYLVREG [ASL_Y376_K380E], the enrichment score was inactive: 0.911.
Same read-out and setting: the same measure for RGFDTYFGFLL [ARSB_Y165_YF]: inactive: 1.2; for LEGAKYVSHGA [ASS1_Y113_R108L]: inactive: 0.575.
Regarding KKCTRYIDCDR [ASPA_Y64_L69R], the enrichment score was inactive: 0.818.
Consider IHFAIYLLKYS [ARMC9_Y107], for which the enrichment score was inactive: 1.57.
On the same count and under the same terms, for QGFDTYFGFLL [ARSB_Y165_R160Q_YF] the value was inactive: 0.877.
As for NDPMEYAKQHG [ASS1_Y163_L160P], the enrichment score is inactive: 0.775.
On the same count and under the same terms, the same measure for TDLAFYLVCKG [ASL_Y376_R379C_YF]: inactive: 1.47.
Same read-out and setting: the same measure for KKCTTYIDCDL [ASPA_Y64_R63T]: inactive: 0.988.
Same read-out and setting: for ATDLAYFLVCK [ASL_Y375_R379C_YF] the value was inactive: 1.32; for REGAKYVSHCA [ASS1_Y113_G117C], inactive: 0.923.
On to NDLMEYAKQHG [ASS1_Y163], for which the enrichment score was inactive: 1.08.
For HEVHIYEKSGA [ARPC1B_Y35], the enrichment score was inactive: 1.24.
Take KTTILHKLKLG [ARF1_Y35_Y35H]: the enrichment score is inactive: 2.26.
Still for that read-out and setting: for DMGAQYAAASP [ARID1B_Y483] the value was inactive: 0.627; for TDLAFYLVRKG [ASL_Y376_YF], inactive: 0.765; for ATDLAYFLVRK [ASL_Y375_YF], inactive: 1.03.
The same measure, in the same setting: for KLMTEYKKRKQ [ARFGEF3_Y2029] the value was inactive: 0.943.
